Experimental data as given in a collection of fitness landscapes (doi:10.1126/science.1257360).
The other results are listed elsewhere or left out.

B1: PhoQ; a variant is named by its letters at X, in order, P23837 (parent)
chain: MKKLLRLFFPLSLRVRFLLATAAVVLVLSLAYGMVALIGYSVSFDKTTFRLLRGESNLFYTLAKWENNKLHVELPENIDKQSPTMTLIYDENGQLLWAQRDVPWLMKMIQPDWLKSNGFHEIEADVNDTSLLLSGDHSIQQQLQEVREDDDDAEMTHSVAVNVYPATSRMPKLTIVVVDTIPVELKSSYMVWSWFIYVLSANLLLVIPLLWVAAWWSLRPIEALAKEVRELEEHNRELLNPATTRELTSLVRNLNRLLKSERERYDKYRTTLTDLTHSLKTPLXXLQXXLRSLRSEKMSVSDAEPVMLEQISRISQQIGYYLHRASMRGGTLLSRELHPVAPLLDNLTSALNKVYQRKGVNISLDISPEISFVGEQNDFVEVMGNVLDNACKYCLEFVEISARQTDEHLYIVVEDDGPGIPLSKREVIFDRGQRVDTLRPGQGVGLAVAREITEQYEGKIVAGESMLGGARMEVIFGRQHSAPKDE

Variants of: B1
Experiment: enrichment ratio after two sorts for PhoP signalling (ratio (wild type AVST 3.29)); higher = more functional
Details: with PhoP (E. coli)

| Variant | enrichment ratio |
| --- | --- |
| LDKI | ≤ 0.25 |
| AGSG | 3.24 |
| SQKG | ≤ 0.25 |
| YLCE | ≤ 0.25 |
| TLDD | ≤ 0.25 |
| MVPK | ≤ 0.25 |
| NYLI | ≤ 0.25 |
| DSYI | ≤ 0.25 |
| KDHG | ≤ 0.25 |
| PKQK | ≤ 0.25 |
| YAFM | ≤ 0.25 |
| QVFV | ≤ 0.25 |
| QTRM | ≤ 0.25 |
| GATM | 15.3 |
| HPVL | ≤ 0.25 |
| IAME | ≤ 0.25 |
| GQND | ≤ 0.25 |
| GLYS | ≤ 0.25 |
| HRGA | ≤ 0.25 |
| GNCH | 3.45 |
| SCNQ | ≤ 0.25 |
| NTWY | ≤ 0.25 |
| RDPV | ≤ 0.25 |
| YTSQ | ≤ 0.25 |
| TSRA | ≤ 0.25 |
| APRE | ≤ 0.25 |

| Variant | enrichment ratio |
| --- | --- |
| WTLC | ≤ 0.25 |
| QYGP | ≤ 0.25 |
| KRCG | ≤ 0.25 |
| TKIF | 3.09 |
| MCSF | 6.58 |
| KVHP | ≤ 0.25 |
| YPPN | ≤ 0.25 |
| QASL | 9.99 |
| NRAC | ≤ 0.25 |
| LYMN | ≤ 0.25 |
| GPQN | ≤ 0.25 |
| MGFP | ≤ 0.25 |
| DVNA | ≤ 0.25 |
| IYWR | ≤ 0.25 |
| GKLQ | 7.89 |
| IQLP | ≤ 0.25 |
| PIAS | ≤ 0.25 |
| QCSI | ≤ 0.25 |
| SNYE | ≤ 0.25 |
| TFTF | ≤ 0.25 |
| NSIL | ≤ 0.25 |
| VQVP | ≤ 0.25 |
| MWCL | ≤ 0.25 |
| YKNP | ≤ 0.25 |
| DIPI | ≤ 0.25 |
| GDYL | ≤ 0.25 |

| Variant | enrichment ratio |
| --- | --- |
| QRGP | ≤ 0.25 |
| FNFR | ≤ 0.25 |
| RTKT | ≤ 0.25 |
| PHEP | ≤ 0.25 |
| EQFN | ≤ 0.25 |
| NRRV | ≤ 0.25 |
| NYDQ | ≤ 0.25 |
| VCFG | ≤ 0.25 |
| RCSN | ≤ 0.25 |
| QGIH | ≤ 0.25 |
| ARDE | ≤ 0.25 |
| DSHD | ≤ 0.25 |
| IARL | ≤ 0.25 |
| FIYD | ≤ 0.25 |
| IMMQ | ≤ 0.25 |
| VRNV | ≤ 0.25 |
| RWFW | ≤ 0.25 |
| ITQV | ≤ 0.25 |
| NAWD | ≤ 0.25 |
| IFTN | ≤ 0.25 |
| TQEC | ≤ 0.25 |
| LTRY | ≤ 0.25 |
| FNDV | ≤ 0.25 |
| GYVN | ≤ 0.25 |
| NRGG | ≤ 0.25 |
| TTDV | 7.66 |

| Variant | enrichment ratio |
| --- | --- |
| DCMR | ≤ 0.25 |
| VTYS | ≤ 0.25 |
| RVMS | ≤ 0.25 |
| KQMA | ≤ 0.25 |
| GFFF | ≤ 0.25 |
| QPAC | ≤ 0.25 |
| VWWM | ≤ 0.25 |
| HYCG | ≤ 0.25 |
| GKSP | ≤ 0.25 |
| NITG | ≤ 0.25 |
| ACSC | 8 |
| HSSY | ≤ 0.25 |
| MGYD | ≤ 0.25 |
| NIMM | 16 |
| SHYP | ≤ 0.25 |
| RFRE | ≤ 0.25 |
| HCPH | ≤ 0.25 |
| TYII | ≤ 0.25 |
| VHGD | ≤ 0.25 |
| ALGQ | ≤ 0.25 |
| KLLM | ≤ 0.25 |
| GMEF | ≤ 0.25 |
| PWLS | ≤ 0.25 |
| PGRH | ≤ 0.25 |
| DPQW | ≤ 0.25 |
| LSNE | ≤ 0.25 |

| Variant | enrichment ratio |
| --- | --- |
| KTHF | ≤ 0.25 |
| GKDC | ≤ 0.25 |
| GIFV | ≤ 0.25 |
| NTWQ | ≤ 0.25 |
| NGLM | 13.2 |
| RMTA | ≤ 0.25 |
| SEVI | 12.2 |
| FSAD | ≤ 0.25 |
| PIKT | ≤ 0.25 |
| DYKA | ≤ 0.25 |
| DQDF | ≤ 0.25 |
| FQMA | ≤ 0.25 |
| RKPD | ≤ 0.25 |
| IPQE | ≤ 0.25 |
| YCEW | ≤ 0.25 |
| DEAL | ≤ 0.25 |
| MYNF | ≤ 0.25 |
| RLYC | ≤ 0.25 |
| VNGE | ≤ 0.25 |
| NDMT | ≤ 0.25 |
| NYHS | ≤ 0.25 |
| HKDK | ≤ 0.25 |
| VDHW | ≤ 0.25 |
| VVTW | ≤ 0.25 |
| WDKT | ≤ 0.25 |
| SANH | ≤ 0.25 |

| Variant | enrichment ratio |
| --- | --- |
| IKSD | ≤ 0.25 |
| DFYG | ≤ 0.25 |
| FGTC | ≤ 0.25 |
| GNVS | 1.31 |
| NMDT | ≤ 0.25 |
| KFLF | ≤ 0.25 |
| GIAS | 14.2 |
| QCYD | ≤ 0.25 |
| GFVA | ≤ 0.25 |
| FMGC | ≤ 0.25 |
| RVMH | ≤ 0.25 |
| VQNM | ≤ 0.25 |
| NWLN | ≤ 0.25 |
| WYFH | ≤ 0.25 |
| IYKD | ≤ 0.25 |
| QVFL | 0.258 |
| TFTH | ≤ 0.25 |
| ELIN | ≤ 0.25 |
| LFYD | ≤ 0.25 |
| SPGP | ≤ 0.25 |
| TKAP | ≤ 0.25 |
| NTFN | ≤ 0.25 |
| SHRF | ≤ 0.25 |
